# According to PMC4336329 (PLoS ONE, 2015):
# Among all 310,000 compounds or so, about 2,200 (0.71%) showed an effect of 50% or more. Effects have a minus sign here. Some of the results follow.
# Target: human ether-à-go-go-related gene (hERG) potassium channel (human, UniProt Q12809)
# Assay: primary screen, population patch clamp on CHO cells stably expressing hERG
# Chain of human ether-à-go-go-related gene (hERG) potassium channel (Q12809 whole entry, looked up): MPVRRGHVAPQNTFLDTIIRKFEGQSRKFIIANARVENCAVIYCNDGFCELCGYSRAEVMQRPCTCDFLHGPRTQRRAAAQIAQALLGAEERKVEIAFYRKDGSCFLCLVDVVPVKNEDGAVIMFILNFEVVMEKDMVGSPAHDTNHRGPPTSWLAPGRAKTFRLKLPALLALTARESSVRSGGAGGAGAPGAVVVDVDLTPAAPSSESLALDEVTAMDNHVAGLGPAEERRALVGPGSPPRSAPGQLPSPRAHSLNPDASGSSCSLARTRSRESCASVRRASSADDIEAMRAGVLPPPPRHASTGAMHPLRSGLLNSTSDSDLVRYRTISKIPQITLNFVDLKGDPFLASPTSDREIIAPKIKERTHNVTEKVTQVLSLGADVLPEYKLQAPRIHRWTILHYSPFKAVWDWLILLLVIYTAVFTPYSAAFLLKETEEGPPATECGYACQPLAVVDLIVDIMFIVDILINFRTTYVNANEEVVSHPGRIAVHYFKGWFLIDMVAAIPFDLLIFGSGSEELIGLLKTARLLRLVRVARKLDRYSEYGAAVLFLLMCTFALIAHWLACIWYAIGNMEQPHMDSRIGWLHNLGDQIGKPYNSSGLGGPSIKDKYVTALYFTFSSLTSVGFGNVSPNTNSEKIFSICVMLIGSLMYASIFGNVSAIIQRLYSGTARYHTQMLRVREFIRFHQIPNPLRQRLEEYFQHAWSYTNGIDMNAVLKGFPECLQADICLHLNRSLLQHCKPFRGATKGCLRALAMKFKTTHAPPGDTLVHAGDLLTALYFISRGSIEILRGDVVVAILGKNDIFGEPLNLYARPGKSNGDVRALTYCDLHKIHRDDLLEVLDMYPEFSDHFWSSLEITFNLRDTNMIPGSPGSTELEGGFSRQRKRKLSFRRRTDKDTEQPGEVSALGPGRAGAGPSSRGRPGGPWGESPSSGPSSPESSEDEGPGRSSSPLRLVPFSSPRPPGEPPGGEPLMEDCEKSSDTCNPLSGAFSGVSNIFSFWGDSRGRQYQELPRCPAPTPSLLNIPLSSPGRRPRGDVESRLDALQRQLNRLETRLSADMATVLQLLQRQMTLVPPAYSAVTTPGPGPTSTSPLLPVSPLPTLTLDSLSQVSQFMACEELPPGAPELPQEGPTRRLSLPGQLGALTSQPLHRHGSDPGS
row,SMILES,"hERG current change (%, negative = inhibition) at 1uM"
1,COc1ccc(Cn2c(=S)[nH]c3cc(C(=O)NCc4cccnc4)ccc3c2=O)cc1,13.5%
2,O=C1CCN1C1(C(=O)NC2CCCCC2)CCCC1,12.1%
3,CC(=O)c1c(N2CCN(c3cccc(Cl)c3)CC2)nc(=S)n(-c2ccccc2)c1C,5.5%
4,COc1ccc(OC)c(C2C(C(C)=O)=C(O)C(=O)N2c2ccc(O)cc2)c1 (stereo not shown),14.9%
5,O=C1C(=O)c2cccc3cccc1c23,8.07%
6,NC(=O)C1(N2CCCCC2)CCN(Cc2ccc(F)cc2)CC1,7.31%
7,CC(C)c1ccc(NS(=O)(=O)c2ccc3c(c2)NC(=O)CO3)cc1,5.53%
8,COc1cccc(/C=N/Nc2ccc(Cl)nn2)c1OC,12.2%
9,Cc1ccc(S(=O)(=O)N2[C@@H](c3cccc(Cl)c3)C(C(=O)O)=CC[C@H]2c2cccc(Cl)c2)cc1,14.2%
10,Cc1ccc(CN2CCN(/N=C/c3ccc(C)s3)CC2)cc1,-1.18%
11,CC(C)(C)NC(=S)N/N=C\c1ccc(-c2ccc([N+](=O)[O-])cc2)o1,13.3%
12,COc1cc([N+](=O)[O-])c2ncsc2c1,18.4%
13,CC(NC(=O)C1(S(=O)(=O)c2ccc(Cl)cc2)CC1)c1ccccc1 (stereo not shown),2.26%
14,Cc1ccccc1OCCC(=O)Nc1ccccc1C(=O)NC1CC1,11.4%
15,CCn1c(SC(=O)NC2CCCCC2)nnc1-c1cccs1,15.1%
16,Cc1nnc(SCC(=O)Nc2ccc(N3CCOCC3)cc2)n1-c1ccccc1,-3.88%
17,CCN(CC)C(=O)c1ccc2c(=O)n(Cc3ccc4c(c3)OCO4)c(=S)[nH]c2c1,9.77%
18,COc1ccc(C(=O)Nc2ccccc2N2CCOCC2)cc1Br,6.16%
19,[O-][N+]12CCCCC1CCCC2CO (stereo not shown),12.1%
20,Cc1ccc(C)c(NC(=O)COc2cccc3c2CCN(Cc2ccccc2C)C3=O)c1,19.1%
21,Cc1ccc(S(=O)(=O)N/N=C\c2cn(CC(N)=O)c3ccccc23)cc1,8.61%
22,O=C(CSc1ccccc1)Nc1ccc(C(=O)Nc2cccc(O)c2)cc1,9.45%

row,SMILES,"hERG current change (%, negative = inhibition) at 1uM"
1,COc1ccc(CN(Cc2cc3cc(C)ccc3[nH]c2=O)C(=O)N(C)C)cc1,8.1%
2,CCn1c(SCC(=O)NC2CCCCC2)nnc1C(C)NC(=O)c1ccccc1F (stereo not shown),7.11%
3,CC(C)(C)OC(=O)N[C@@H](C(=O)OC(C)(C)C)c1ccc2c(c1)OCO2,13.5%
4,CC(=O)c1cccc(NC(=O)c2cc(-c3ccco3)on2)c1,6.53%
5,CCOc1ccccc1-n1nnnc1SCC(=O)NCC1(N2CCOCC2)CCCCC1,-1.12%
6,CC(c1ccc(C(C)(C)C)cc1)S(=O)CC(O)CO (stereo not shown),0.188%
7,O=C(/C=C/c1ncc(C(F)(F)F)cc1Cl)OCc1ccccc1,6%
8,S=c1[nH]c2cnccc2n1Cc1ccccc1,3.98%
9,CCCCN1C(=O)/C(=C/C=C2/C=Cc3ccccc3N2CC)SC1=S,-0.626%
10,O=C(CCC(=O)N1CCCCC1)Nc1nnc(C2CCCCC2)s1,15.1%
11,COCCNC(=O)C(c1ccco1)N(C(=O)Cn1nnc2ccccc21)c1cccc(C)c1C (stereo not shown),4.58%
12,O=C(c1cc(-c2ccccn2)nc2ccc(Cl)cc12)N1CCN(CCc2ccccc2)CC1,8.51%
13,CCN=C(Nc1ccc2c(c1)OCO2)SC1CC(=O)N(c2ccccc2F)C1=O (stereo not shown),-3.86%
14,Cc1cc(C(=O)Nc2ccc3ccccc3c2)oc1C,-38.6%
15,CN1/C(=C/C(=O)c2nc(S(C)(=O)=O)ncc2Cl)C(C)(C)c2ccccc21,4.68%
16,NC(=O)C[C@@H]1NC(=O)CNC(=O)c2cc([N+](=O)[O-])cc(I)c2NCCC(C(N)=O)NC1=O (stereo partly shown),7.79%
17,O=C(Cc1ccccc1Cl)NC1(O)C(=O)c2ccccc2C1=O,17%
18,O=C(NNC(=O)c1cc(-c2ccc(Cl)cc2)nc2ccccc12)c1csc(N2CCOCC2)n1,-1.57%
19,Cc1cccc(OCc2n[nH]c(=S)n2C2CCCCC2)c1,17.7%
20,CC(=O)Nc1ccc(CN2CCN(CCC(C)C)C(CCO)C2)cc1 (stereo not shown),13.7%
21,O=[N+]([O-])c1ccc2c(c1)C(O)n1nc(-c3ccc(Cl)cc3Cl)nc1S2 (stereo not shown),12.4%
